In all, about 33,000 sequences were measured (“E-score (-0.5 to 0.5)”: median about -0.016, highest 2% from about 0.32 on). Some of the results follow.

The test deals with T1, Stp1 (UniProt B3LFK1).
T1 sequence: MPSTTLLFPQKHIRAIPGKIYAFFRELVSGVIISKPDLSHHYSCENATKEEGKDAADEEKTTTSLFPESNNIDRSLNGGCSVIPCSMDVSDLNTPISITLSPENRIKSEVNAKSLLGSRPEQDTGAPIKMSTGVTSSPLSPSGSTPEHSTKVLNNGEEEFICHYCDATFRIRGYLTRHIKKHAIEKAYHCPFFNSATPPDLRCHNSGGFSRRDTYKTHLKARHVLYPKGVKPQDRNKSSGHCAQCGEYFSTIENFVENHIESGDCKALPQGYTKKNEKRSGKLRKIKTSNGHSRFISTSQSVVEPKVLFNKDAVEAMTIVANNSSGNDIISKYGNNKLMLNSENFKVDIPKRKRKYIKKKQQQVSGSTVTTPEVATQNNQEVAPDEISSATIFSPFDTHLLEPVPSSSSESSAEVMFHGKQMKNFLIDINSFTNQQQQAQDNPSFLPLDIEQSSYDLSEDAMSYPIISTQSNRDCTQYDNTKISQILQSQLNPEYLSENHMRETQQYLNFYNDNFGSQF
Put plainly: PBM E-score (8-mer binding enrichment) (E-score (-0.5 to 0.5)); higher = stronger / more preferred TF binding; most listed sequences are background and not binding sites. To be noted: protein concentration: 200 nM; construct: GST-full length. How it is done:
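Universal 'all 10-mer' protein binding microarrays (Agilent AMADID 015681) probed with GST-tagged S. cerevisiae TFs (full-length or DBD) made by in vitro transcription/translation (PURExpress), about 100-200 nM. Bound TF was detected with fluorescent anti-GST. Each ungapped 8-mer (which stands for itself and its reverse complement) is scored by the PBM enrichment score (E-score), a modified Wilcoxon-Mann-Whitney statistic from -0.5 to +0.5, computed with the Universal PBM Analysis Suite. Scale: above 0.35 generally sequence-specific binding.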
Consider CGATATCA, for which the “PBM E-score” value amounted to 0.116. Then ACCATCCA, with -0.213. Then CCATCAAG, with -0.214; and CCCCATGA, with -0.159; and GGACTCCA, with -0.225.

In the case of AGAAAACG, the “PBM E-score” value worked out at 0.128.

On to CATACCTC, for which the “PBM E-score” value stood at 0.0449. Turning to TAACCTCA, the “PBM E-score” value was -0.136. With CATCGGAC, the “PBM E-score” value was -0.183.

With AAATCTGA, the “PBM E-score” value was 0.2. Under AGCTATGA stands -0.183; under GCGGTGAA, 0.148. Under GGCAAACC stands -0.00027. Under AGCGTTCA stands -0.266.

On to CGTCCGGA, for which the “PBM E-score” value is -0.134. Under ACGTCTAT stands -0.206; under CCTGGGCA, -0.264. Under ATTAAGCG stands 0.194; under CACGTATA, 0.133. As for GCTACGAA, the “PBM E-score” value was 0.0105. Under ATGATTGG stands -0.0406; under AAACAGCC, -0.024; under ACTCATCC, 0.027.

Consider GCACGATA, for which the “PBM E-score” value stood at 0.0861.

In the case of AAAGCGTA, the “PBM E-score” value was determined as 0.016. In the case of ACTAAAGC, the “PBM E-score” value was -0.0112.

On to GATACCCA, for which the “PBM E-score” value was -0.117. With AACGCTCC, the “PBM E-score” value is -0.122. Under GACCCACC stands -0.27. Then AAAGTGAT, with -0.0727; and CAATCTGG, with -0.0352; and CACATTAA, with 0.0258. Take TAGATCAA: the “PBM E-score” value was -0.00316. Then GCATGTAA, with 0.125; and AGCCTGAC, with -0.154. Consider ACCTCTCT, for which the “PBM E-score” value was -0.171. Under ATCAGGCA stands -0.0243; under CTCCGAAC, -0.0224; under ATGTGTTG, 0.131. Then CCATGAGC, with -0.0849; and GGTCAGAA, with -0.0152. Under CCGGAAAC stands -0.171. With GGAATTAA, the “PBM E-score” value amounted to 0.0807.

Regarding CATACAAG, the “PBM E-score” value is -0.135. ACCCTGCT: the “PBM E-score” value was -0.321. In the case of CGTCGACA, the “PBM E-score” value amounted to 0.089. Then GACAAGCC, with 0.104; and ACTCTCAG, with 0.0178; and ACATAGTC, with -0.0859.

In the case of GAGTCGAC, the “PBM E-score” value was -0.193. Then AGAAAGTC, with -0.168; and ATAAATCG, with 0.106; and AGGCTTGG, with -0.0363. Then AACCCGCA, with -0.00015; and AGAACACT, with 0.0761; and GCGTCATA, with 0.168. As for CTACCAAA, the “PBM E-score” value is -0.0408. As to TCTCCAGA, the “PBM E-score” value is -0.04. Turning to AAGAGTGA, the “PBM E-score” value is -0.0731. As to GTCTTCGA, the “PBM E-score” value was -0.0273.

Consider CGAGTGAG, for which the “PBM E-score” value was -0.0223. Then GGTTGCTA, with -0.185; and ACCTGTGC, with -0.0825. Under CTCCCAAC stands -0.0984; under CTCGTCGC, -0.0397. As for AGGTCAAA, the “PBM E-score” value was -0.16. With ACTCAGCA, the “PBM E-score” value was -0.126.

With GACTGGGA, the “PBM E-score” value is -0.28.

With GACAGGGC, the “PBM E-score” value amounted to 0.249.

As for ATAGCGAG, the “PBM E-score” value is -0.0746. Then CGTATCTC, with 0.0667; and ATAGTCTG, with -0.0167; and AGCCCGAT, with 0.0428. TGTCCCAA: the “PBM E-score” value was -0.0586. As for ATCGTGGG, the “PBM E-score” value was 0.0581.

In the case of CCGGGATC, the “PBM E-score” value is -0.192. In the case of TCGTCTAA, the “PBM E-score” value is -0.0335. Then AGAGGCCA, with -0.175; and GACTCCTC, with -0.135.

Turning to AGTGCGAG, the “PBM E-score” value is -0.0678. For AATAAAGA, the “PBM E-score” value stood at 0.09. Then AATGCATA, with -0.0447; and ACCAGAGG, with 0.0219; and ACAATAGG, with -0.0292.

Regarding ATAGGCAC, the “PBM E-score” value stood at 0.178. On to ACTATACG, for which the “PBM E-score” value was 0.0276. In the case of AGTTAGCA, the “PBM E-score” value came out at 0.144. Turning to AGCGGTAA, the “PBM E-score” value is 0.0593. Consider GCAAAGAA, for which the “PBM E-score” value turned out to be 0.173. Under AAAAATTT stands 0.0238. Then ACGAAAAT, with 0.163.

For ATGAACAC, the “PBM E-score” value was 0.0824. Then GTGAAGGA, with -0.196; and CAAACCGA, with -0.122. Then CACAGCCC, with -0.172; and ACTGTCTA, with -0.0688. Then ACTTCAAG, with 0.0425. With ACGTATGG, the “PBM E-score” value is 0.0102. Regarding GAGCGAGC, the “PBM E-score” value turned out to be 0.0421.

Consider AACAGGGG, for which the “PBM E-score” value is -0.147. Then GCTTCGCA, with -0.074; and AGGGCAAG, with -0.0307. Regarding ATACGATG, the “PBM E-score” value is -0.0671. Under CCTTTCCC stands -0.0362; under ATGTAAAA, 0.198. As for ACCGACCA, the “PBM E-score” value was -0.00902. As to ATCAAGGA, the “PBM E-score” value is -0.00255. AAAGATCA: the “PBM E-score” value was found to be 0.136.

As for ACACCTAC, the “PBM E-score” value is 0.0117.

Regarding ACCGTCTC, the “PBM E-score” value was 0.00679.

For the origin of these results see the supplement of paper PMC3334620.
